# Some of the results follow.
# System: S. aureus RN4220
# Experiment: growth inhibition call (relative growth <= 0.2)
# Settings: 50 µM
row,Structure (SMILES),growth inhibition call
1,C[C@@H]1CN([C@@H](C)CO)C(=O)c2cc(-c3cccnc3)cnc2O[C@@H]1CN(C)C(=O)Nc1ccc2c(c1)OCO2,inactive
2,O=C(NCc1ccccc1)[C@@H]1c2ccccc2C(=O)N(CC23CC4CC(CC(C4)C2)C3)[C@H]1c1ccc(CO)cc1,inactive
3,COc1ccc(NC(=O)N(C)C[C@@H]2OCCCC[C@@H](C)Oc3ccc(NC(=O)Nc4ccc(C(F)(F)F)cc4)cc3C(=O)N([C@@H](C)CO)C[C@@H]2C)cc1,inactive
4,O=C1NC(=O)[C@H](Cc2ccccc2)N1,inactive
5,O=C(CCCCCNC(=O)OCc1ccc(CO[C@H]2C[C@@H](c3csc4ccccc34)C=C(C(=O)N3CCN(Cc4ccc5c(c4)OCO5)CC3)O2)cc1)NO,inactive
6,C[C@H](CO)N1C[C@H](C)[C@H](CN(C)Cc2ccc(Cl)c(Cl)c2)Oc2c(NC(=O)CCCCCC(=O)Nc3ccccc3N)cccc2C1=O,inactive
7,C[C@@H]1CN([C@H](C)CO)C(=O)c2cccc(NS(C)(=O)=O)c2O[C@@H]1CN(C)C(=O)Nc1ccc2c(c1)OCO2,inactive
8,CO[C@@H]1[C@H](O)[C@@H](CO)O[C@H]1n1cc(C)c(N)nc1=O,inactive
9,COc1cc(CC=Cc2ccccc2)c(OC)cc1O,inactive
10,CC(C)NC(=O)Nc1ccc2c(c1)C(=O)N([C@@H](C)CO)C[C@@H](C)[C@@H](CN(C)C(=O)NC1CCCCC1)O2,inactive
11,C[C@H](CO)N1C[C@H](C)[C@H](CN(C)Cc2ccc(Cl)c(Cl)c2)Oc2c(NS(=O)(=O)c3ccccc3)cccc2C1=O,inactive
12,COC(=O)[C@@H](Cc1ccc(-n2cc(C(=O)NO)nn2)cc1)N1CC(/C=C/C2CC2)=C[C@H]1[C@H](O)Cc1ccccc1,inactive
13,C[C@H](CO)N1C[C@H](C)[C@H](CN(C)S(=O)(=O)c2ccccc2F)Oc2ncc(C#Cc3ccncc3)cc2C1=O,inactive
14,C=CCNc1ncnc2c1cnn2C,inactive
15,Cn1c(=O)c2c(nc(NCCO)n2C)n(C)c1=O,inactive
16,COCC(=O)N1C[C@H](C)[C@H](OC)CN(C)C(=O)c2cc(NC(=O)Nc3ccccc3)ccc2OC[C@@H]1C,inactive
17,C(=N\c1nc2ccccc2[nH]1)/N(c1ccccc1)c1ccccc1,inactive
18,O=c1n(-c2ccccc2)c(=O)n2n1CC(COc1ccccc1)=C1[C@@H](CCc3ccccc3)OB(O)C[C@@H]12,inactive
19,CN(C)CCCNC(=O)C[C@H]1CC[C@H]2[C@@H](COC[C@@H](O)CN2C(=O)Nc2cc(Cl)cc(Cl)c2)O1,inactive
20,C[C@@H]1CCCCO[C@H](CN(C)Cc2ccc(C(F)(F)F)cc2)[C@H](C)CN([C@@H](C)CO)C(=O)c2cc(NS(=O)(=O)c3ccc(Cl)cc3)ccc2O1,inactive

row,Structure (SMILES),growth inhibition call
1,C[C@H](CO)N1C[C@H](C)[C@H](CN(C)S(=O)(=O)c2ccc(F)cc2)Oc2ccc(NC(=O)CCN3CCOCC3)cc2CC1=O,inactive
2,Cn1cnc(S(=O)(=O)N2C[C@H](O)COC[C@H]3O[C@@H](CC(=O)NC4CCC4)CC[C@@H]32)c1,inactive
3,CCCCc1nn(-c2ccccc2C(F)(F)F)c(=O)n1Cc1ccc(-c2ccccc2S(=O)(=O)NC(=O)c2sccc2C)cc1,active
4,C[C@H](CO)N1C[C@H](C)[C@@H](CN(C)Cc2ccccc2)OCCCC[C@H](C)Oc2ccc(NC(=O)C3CCCCC3)cc2C1=O,inactive
5,C[C@@H]1CN([C@@H](C)CO)C(=O)c2cc(NC(=O)NC3CCCCC3)ccc2O[C@@H](C)CCCCO[C@H]1CN(C)Cc1ccncc1,inactive
6,CCS(=O)(=O)Nc1ccc2c(c1)C(=O)N(C)C[C@H](OC)[C@H](C)CN(CCC(F)(F)F)[C@@H](C)CO2,inactive
7,CC1CCC2C(C)C(OC(=O)CCC(=O)O)OC3OC4(C)CCC1C32OO4 (stereo not given),inactive
8,C[C@@H]1CCCCO[C@@H](CN(C)C(=O)Nc2cccc3ccccc23)[C@H](C)CN([C@H](C)CO)C(=O)c2cc(NC(=O)C3CCCCC3)ccc2O1,inactive
9,C[C@@H]1CCCCO[C@H](CN(C)C(=O)Cc2ccccc2)[C@@H](C)CN([C@H](C)CO)C(=O)c2cc(NC(=O)Nc3ccc(C(F)(F)F)cc3)ccc2O1,inactive
10,C[C@H]1CCCCO[C@H](CN(C)Cc2ccc(Cl)c(Cl)c2)[C@@H](C)CN([C@@H](C)CO)C(=O)c2cc(N(C)C)ccc2O1,inactive
11,CO[C@@H]1CN(C)C(=O)c2cc(NC(=O)Nc3ccccc3F)ccc2OC[C@H](C)N(CCC(F)(F)F)C[C@H]1C,inactive
12,C[C@H]1CN([C@@H](C)CO)S(=O)(=O)c2ccc(-c3ccncc3)cc2O[C@@H]1CN(C)C(=O)c1cccc(F)c1,inactive
13,C[C@@H]1CN([C@@H](C)CO)C(=O)Cc2cc(NC(=O)Cn3cnnn3)ccc2O[C@@H]1CN(C)CC1CC1,inactive
14,Cc1ccc(S(=O)(=O)N(C)C[C@@H]2Oc3ncc(-c4ccncc4)cc3C(=O)N([C@@H](C)CO)C[C@H]2C)cc1,inactive
15,COc1ccc(COC[C@@H](C)N2C[C@H](C)[C@H](CN(C)S(=O)(=O)c3ccc(Cl)cc3)Oc3ccc(NC(=O)NC(C)C)cc3C2=O)cc1,inactive
16,C[C@@H]1CN([C@@H](C)CO)C(=O)c2cccc(NC(=O)C3CCCCC3)c2O[C@@H]1CN(C)Cc1ccc(Oc2ccccc2)cc1,inactive
17,CN(C)C(=O)c1ccc(-c2cccc(-c3nc(C(=O)NCc4ccccc4)cc4c3[C@@H](CCO)N([S@](=O)C(C)(C)C)C4)c2)cc1,inactive
18,O=C(C[C@H]1C=C[C@@H](NC(=O)CN2CCOCC2)[C@@H](CO)O1)NC1CCCCC1,inactive
19,C[C@H](O)C#Cc1cnc2c(c1)C(=O)N([C@H](C)CO)C[C@@H](C)[C@H](CN(C)C(=O)CN1CCOCC1)O2,inactive
20,CCO[C@@H]1OC(C(=O)N2CCN(Cc3ccccc3)CC2)=C[C@H](c2cn(C(C)=O)c3ccccc23)[C@H]1CCCOC(=O)NCCCCCC(=O)NO,inactive

# Reference: the antibiotic and cytotoxicity screens of Wong et al. (2023)
